Consider 111 compounds from PubChem BioAssay AID488969 (Vanderbilt High Throughput Screening Facility, 2010).

Whole data set: some 110,000 compounds, median “z-score” near -0.1, cut for the highest 2% near 2. This is one part of the list. Activity calls are given as the source filed them.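 The calls were made as follows: active = z-score in the third read window above 3 or below -3; inactive = the rest.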

The experiment addresses Metabotropic glutamate receptor 8 (Rattus norvegicus) (UniProt P70579). As to the kind of experiment: rat mGluR8 modulators via GIRK flux, primary screen, cell-based, thallium flux, HTS (AID 488969). Conditions: HEK293 rat mGluR8, GIRK (G protein-gated inwardly rectifying potassium channel) thallium flux, FluoZin2; at 10 µM; stronger effect = higher value; submaximal glutamate (EC20) added with thallium.
Sequence of UniProt P70579 (P70579 whole entry, looked up): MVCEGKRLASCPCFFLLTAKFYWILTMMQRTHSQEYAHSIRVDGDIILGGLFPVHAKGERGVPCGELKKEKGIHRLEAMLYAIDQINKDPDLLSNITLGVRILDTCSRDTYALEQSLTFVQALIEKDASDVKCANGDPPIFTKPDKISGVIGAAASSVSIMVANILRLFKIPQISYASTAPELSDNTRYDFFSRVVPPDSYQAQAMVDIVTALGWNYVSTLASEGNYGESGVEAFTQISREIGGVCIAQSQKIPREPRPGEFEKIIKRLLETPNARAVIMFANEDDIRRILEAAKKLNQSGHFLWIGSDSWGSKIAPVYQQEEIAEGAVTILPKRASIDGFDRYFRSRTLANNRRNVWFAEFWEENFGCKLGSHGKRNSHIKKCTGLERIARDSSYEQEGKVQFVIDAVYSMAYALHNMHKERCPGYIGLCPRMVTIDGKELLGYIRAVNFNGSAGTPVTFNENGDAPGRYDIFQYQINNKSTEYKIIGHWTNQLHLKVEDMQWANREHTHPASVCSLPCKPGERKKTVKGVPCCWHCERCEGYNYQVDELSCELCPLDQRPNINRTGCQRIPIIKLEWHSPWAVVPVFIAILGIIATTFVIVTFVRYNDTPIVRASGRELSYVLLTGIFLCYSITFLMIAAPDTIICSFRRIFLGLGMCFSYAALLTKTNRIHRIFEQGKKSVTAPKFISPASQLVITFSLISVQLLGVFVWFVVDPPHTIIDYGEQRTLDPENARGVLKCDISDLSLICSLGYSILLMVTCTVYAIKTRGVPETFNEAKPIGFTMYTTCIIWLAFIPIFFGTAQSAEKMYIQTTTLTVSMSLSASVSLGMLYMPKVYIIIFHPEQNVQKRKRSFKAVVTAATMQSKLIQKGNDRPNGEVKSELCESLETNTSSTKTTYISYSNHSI
Turning to `CN(C)CCNC(=O)c1cc(Br)ccc1Cl`, the z-score came out at 0.194.
The compound `COc1ccc2[nH]c3c(=O)n(N)c(C)nc3c2c1` registered a z-score of -0.355.
On to `O=C(c1ccco1)N1CCN(S(=O)(=O)c2ccc(Br)s2)CC1`, for which the z-score was -0.168.
For `Cc1sc(NC(=O)CSC2=NCCS2)nc1-c1ccccc1`, the z-score worked out at 0.623.
To `O=C1Nc2ccc(S(=O)(=O)N3CCCC3)c3cccc1c23` belongs 0.152; to `COc1ccccc1C1CC(c2ccc(F)cc2)Nc2ncnn21` (stereo unspecified), -0.499.
As for `CCC(=O)Nc1ccc(C(=O)N/N=C/c2cc(Br)c(OC)cc2OC)cc1`, the z-score was -0.162.
In turn, `O=C(NCC1CCCCC1)C12CN(Cc3ccccc3)CC1C(c1cccc([N+](=O)[O-])c1)=NO2` (stereo unspecified) registered a z-score of -0.253.
`COc1ccc(CN(CC(=O)NCc2ccco2)C(=O)CCC(=O)Nc2nccs2)cc1` returned a z-score of 0.164.
Consider `Cc1ccc(OCC(=O)N2CCN(S(=O)(=O)c3ccc(Cl)cc3)CC2)c([N+](=O)[O-])n1`, for which the z-score was -0.537.
Turning to `O=C(NCc1cccnc1)c1c(F)c(F)c(F)c(F)c1F`, the z-score is -0.459.
Consider `Cc1ccccc1/[N+]([O-])=C/c1ccncc1`, for which the z-score was 0.142.
`CSC1CCCCC1(O)CSc1nc2c(cc1C#N)CCCC2` (stereo unspecified) registered a z-score of -0.0226.
The same measure for `Cc1ccc(Cl)cc1N1CCN(S(=O)(=O)c2c(C)[nH]c(=O)[nH]c2=O)CC1`: 0.0549; for `COC(=O)c1cccc(NC(=O)CCc2cc(OC)c(OC)c(OC)c2)c1`: 0.0427; for `CCN(CC)c1ccc(C(=O)Nc2cccc(F)c2)cc1`: -0.609.
As to `COc1cccc(N=Nc2c(=O)[nH]n3c(C)cc(C)nc23)c1`, the z-score was -0.00267.
Turning to `CCOC(=O)C1=C(C)N(c2nonc2NC(C)=O)C(N)=C(C#N)C1c1ccccc1F` (stereo unspecified), the z-score worked out at 0.995.
Regarding `CC(=O)Nc1cc(NC(C)=O)cc(C(=O)OCC(=O)N2CC(C)OC(C)C2)c1` (stereo unspecified), the z-score was -0.109.
To `CCOC(=O)c1c(NC(=S)NC)sc2c1CC(C)(C)SC2` belongs active: 12.5.
`CCOc1ccc(-c2nnn(CC(=O)c3ccc4c(c3)OCCO4)n2)cc1OCC` gave a z-score of -0.694.
Compound `CC(/C=N\NC(=O)CN1CCN(S(=O)(=O)c2ccc(C)cc2)CC1)=C\c1ccccc1` yielded a z-score of -0.33.
`CCN1C(=O)C(NC(C)=O)c2cc(Br)ccc21` (stereo unspecified) gave a z-score of 1.19.
On to `COc1c(C)cc(Br)cc1C(=O)Nc1cccc(NC(=O)c2ccco2)c1`, for which the z-score was -1.53.
`C=CCOC(=O)C1=C(C)Nc2ncnn2C1c1cccs1` (stereo unspecified): the z-score is -2.14.
On to `O=C1COc2ccc(C(=O)/C=C/c3ccccc3)cc2N1`, for which the z-score was -0.156.
Regarding `COc1ccccc1Cc1nc(-c2ccc(C)cc2)no1`, the z-score was -0.218.
For the compound `Cc1ncoc1C(=O)Nc1cccc(Cl)c1C`, the z-score was determined as 0.581.
To `CC(=O)Nc1cc(C(=O)N2CCN(C)CC2)ccc1S(=O)(=O)c1ccc(C)cc1` belongs 0.0185.
In turn, `COc1ccc2ccccc2c1/C=N\n1c(C)cc(C)c(C(N)=O)c1=O` registered a z-score of 0.345.
The same measure for `COC(=O)CSc1cc(C)nc(SC)n1`: 0.243; for `CCc1ccccc1NC(=O)CN(C)C(=O)CSc1nc2cc(Cl)ccc2s1`: -0.3; for `CC1CCCCN1Cc1ccc(N)cc1` (stereo unspecified): 0.26.
For `Cc1ccc(OC(=O)CCc2c(C)nc3ncnn3c2C)cc1`, the z-score is -0.382.
Regarding `CCN(CC)S(=O)(=O)c1ccc(Nc2ccc(-c3ccc4c(c3)OCCO4)nn2)cc1`, the z-score was determined as 0.132.
The compound `O=C(CSc1nnc(-c2cc(-c3cccs3)nc3ccccc23)o1)NC1CCCCC1` displayed a z-score of -0.136.
Turning to `CCCN(C#N)c1nc(NCC)nc(NC(C)C)n1`, the z-score was 0.86.
The same measure for `CCCNC(=S)N1CCC(NC(=O)C2CCCCC2)CC1`: 0.042.
`Cc1cc(C)n2nc(C(=O)OCC(=O)Nc3ccc4c(c3)OC(F)(F)O4)nc2n1` had a z-score of -0.0308.
To `COc1ccccc1/C=C(/C(=O)OCC(=O)N(C)Cc1ccccc1)c1ccccc1` belongs -0.318.
To `Cc1nc2ccccc2n1CC(O)Cn1c2ccccc2c2ccccc21` (stereo unspecified) belongs 0.752; to `CCCC(CCC)=NNC(=O)CN(Cc1ccccc1)S(=O)(=O)c1ccccc1`, -0.537; to `O=c1[nH]ncc(NCCCO)c1Cl`, -0.683.
Compound `COc1ccc(C(=O)Nc2cc3c(cc2Cl)OCCCO3)cc1` showed a z-score of -0.49.
Compound `CCCCOP(=O)(c1ccc(N(C)C)cc1)C(O)c1ccccc1F` (stereo unspecified) had a z-score of -0.233.
Consider `CCCN(CCC)C(=O)CCSCCC(=O)N(CCC)CCC`, for which the z-score was -0.0331.
Turning to `C/C(N)=C(/C#N)C(=O)COC(=O)CC12CC3CC(CC(C3)C1)C2`, the z-score is 0.725.
The compound `CCN(CC)S(=O)(=O)c1ccc(C)c(NC(=O)COc2ccc(Br)cc2Cl)c1` yielded a z-score of 0.0626.
In turn, `CC(=O)c1c(C)[nH]c(C(=O)OC2CCCCC2=O)c1C` (stereo unspecified) returned a z-score of 0.176.
To `COc1ccc(C(=O)CSc2nnc(COc3ccc(C#N)cc3)n2-c2ccccc2)cc1` belongs -0.43; to `CC(C)(C)OC(=O)N1CCN(c2ccc(CNC(=O)c3ccc(Cl)cc3)cc2)CC1`, -0.0306; to `Cc1ccc(CSCCNC(=O)CSCc2ccc([N+](=O)[O-])cc2)cc1`, -0.519.
The compound `C=CCNc1nc(SC)nc2ccsc12` displayed a z-score of -0.152.
The compound `CSc1nc(N2CCOCC2)c2ccccc2n1` had a z-score of -1.07.
To `CCn1cc(C(=O)N2CCN(Cc3ccc4c(c3)OCO4)CC2)c2cc(OC)c(OC)cc2c1=O` belongs -0.76.
As to `Cc1cc(=O)oc(C)c1C(=O)Nc1ccc2nsnc2c1`, the z-score was -0.238.
The compound `CC1(C)CC(=O)C(C#N)=C(NCCCO)C1` came in with a z-score of -0.262.
In turn, `Cc1ccc(CN2CCN(CC(=O)N/N=C/c3c[nH]c4ccccc34)CC2)cc1` displayed a z-score of -0.216.
The compound `CC(=O)c1sc(NC(=O)c2ccc(Cn3cc(Br)cn3)o2)nc1C` yielded a z-score of 1.62.
`C=CCNC(=S)N1CCC(C(=O)c2ccc(OC)cc2)CC1` yielded a z-score of -0.145.
Compound `C=C(C)C(=O)Nc1ccc(OC(F)(F)C(F)F)c(NC(=O)C(=C)C)c1` displayed a z-score of 0.507.
The same measure for `COc1ccc(CCn2c(C)cc(C(=O)CSc3nnnn3-c3ccccc3)c2C)cc1OC`: -0.0773; for `O=C(CN1CCN(S(=O)(=O)c2ccc3ccccc3c2)CC1)Nc1ccc2c(c1)CCC2`: -0.0294.
Regarding `CCOC(=O)c1sc2nc(N3CCOCC3)c3c(c2c1N)CCCC3`, the z-score was -0.026.
The same measure for `CC1=C(C(=O)Nc2ccccc2C)C(c2cccnc2)n2nc(CCCO)nc2N1` (stereo unspecified): -0.0856.
For the compound `Cc1cc(C(=O)NN)c2cc(Br)ccc2n1`, the z-score was -0.118.
As to `NNc1nc2c(Cl)ccc(Cl)c2s1`, the z-score is -0.00578.
As for `O=C(CSc1nnc(-c2ccccc2Br)o1)Nc1cccc2ccccc12`, the z-score is -0.465.
With `Cc1nnc(NCCO)c2ccccc12`, the z-score was -0.3.
To `CC1CCCN(C2=NC(=O)/C(=C/c3cn(-c4ccccc4)nc3-c3cccc(S(=O)(=O)N(C)C)c3)S2)C1` (stereo unspecified) belongs 0.104; to `CCCN(CCC)c1nc(NC2CCN(C(=O)OCC)CC2)nc(OC)n1`, -0.1; to `COc1ccc(NC(=O)CSc2nnc(CNc3ccc(F)cc3)o2)c(OC)c1`, -0.241.
As to `O=C(N/N=C/c1cccc([N+](=O)[O-])c1)c1cc(-c2ccc3c4c(cccc24)CC3)n[nH]1`, the z-score was -0.26.
In the case of `COCCNS(=O)(=O)c1cc(F)ccc1OC`, the z-score was -0.0485.
Consider `O=C1C2C3C=CC(O3)C2C(=O)N1CC(O)c1ccccc1` (stereo unspecified), for which the z-score is -0.327.
The compound `CNC(=O)CC(C(=O)O)c1ccc(OC(C)C)cc1` (stereo unspecified) displayed a z-score of 0.165.
As for `CC1CN(Cc2ccccc2Cl)CC(C)O1` (stereo unspecified), the z-score is -0.405.
`NC(CC(=O)OC1CCCCC1)C(=O)OC1CCCCC1` (stereo unspecified) gave a z-score of -0.287.
The same measure for `COC(=O)c1ccc(Cl)c(NC(=O)CSc2ncn[nH]2)c1`: -0.0241.
`CCc1cc(=O)n2c([nH]c3ccccc32)c1C#N` came in with a z-score of 0.126.
To `COc1ccc(/C=N/Nc2nccnc2Cl)cc1` belongs 0.871; to `O=C(NCCN1CCCC1)c1ccc2c(=O)n(CCc3ccccc3)c(=O)[nH]c2c1`, 1.17; to `O=C(O)CNC(=O)CCN1C(=O)c2ccccc2C1=O`, -0.152.
The compound `C/C(=N\NC(=O)c1ccc(CSc2nc(C)cc(C)n2)cc1)C1CCCCC1` yielded a z-score of -0.246.
To `O=C(NC(=S)Nc1ccc(S(=O)(=O)Nc2nccs2)cc1)c1ccccc1` belongs 0.116; to `CCN(CC)CC(C)CNC(=O)CC(C(=O)N1CCc2ccccc21)n1ccnc1` (stereo unspecified), -0.405.
`Cc1cc2c(C)cc(=O)oc2c2c1NCCC2` showed a z-score of -0.295.
In turn, `CC(=O)Nc1ccc(NC(=O)CN(C)CCC#N)cc1` displayed a z-score of 0.0576.
The same measure for `Cc1cc(Cl)c(OCCN2C(=O)NC(C)(C)C2=O)c(Br)c1`: -0.0442; for `CCOc1cc(C)c(Cl)cc1S(=O)(=O)NCc1ccc2c(c1)OCO2`: -0.837; for `COc1ccccc1/C=C(/CC(=O)NCc1ccccc1)c1nc2ccccc2s1`: -0.481.
The same measure for `CCOc1ccccc1N1CCN(C(=S)Nc2ccc(S(N)(=O)=O)cc2)CC1`: -0.356; for `CN(C)CCN(C(=O)/C=C/c1cccs1)c1nc2ccc(F)cc2s1`: -0.305; for `Cc1onc(-c2ccccc2)c1C(=O)NNC(=S)NC(=O)c1ccc(Br)cc1`: 1.67.
The compound `Cc1ccc(C)c(N2CCN(C(=O)Cc3cn(C)c4ccccc34)CC2)c1` registered a z-score of -0.0579.
`CCCC1Cc2nc(N3CCCCC3)c(C#N)cc2CO1` (stereo unspecified): the z-score came to 0.443.
The compound `Cc1ccc(-n2c(N)c(C(=O)N3CCCCC3)sc2=S)cc1` came in with a z-score of -0.614.
The compound `COc1cc(/C=N/OCC(=O)NC2CCCCC2C)ccc1OCc1ccc(Cl)cc1` (stereo unspecified) registered a z-score of -0.387.
For `Cc1cc(C(=O)Nc2c(C)n(C)n(-c3ccccc3)c2=O)c2ccccc2n1`, the z-score came to 0.444.
The same measure for `FC(F)(F)Oc1ccc(NC(=S)NCc2ccccc2)cc1`: active: 3.23.
For the compound `O=C(Cc1ccccc1)N1CCC(O)(c2cccnc2)CC1`, the z-score was -0.136.
The same measure for `Cc1cc(C)c2nc(NC(=O)c3cccc(S(=O)(=O)N4CCc5ccccc54)c3)sc2c1`: -0.315; for `COc1ccc(CN(C)CC(=O)Nc2ccc(N3CCOCC3)cc2)cc1OC`: -0.224.
In the case of `CC1CC2(CCCCC2)N2C(=O)C(=O)c3cccc1c32` (stereo unspecified), the z-score was -0.955.
Regarding `COc1ccc(CCNC(=O)C2CC(c3ccccc3[N+](=O)[O-])=NO2)cc1` (stereo unspecified), the z-score is -0.176.
Compound `CCNc1ccc2noc3c2c1C(=O)c1ccccc1-3` gave a z-score of -1.71.
To `Cc1noc(NS(=O)(=O)c2ccc(NC(=O)CSc3nc4c(cc3C#N)CCC4)cc2)c1C` belongs 0.813; to `CCOc1ccc(S(=O)(=O)Nc2ccc3c(c2)c2c(n3S(=O)(=O)c3ccc(OCC)cc3)CCCC2=O)cc1`, -0.175; to `CCOC(=O)CSc1nc(N)c(C#N)c(-c2ccc(OC)cc2)c1C#N`, 0.504.
With `O=C(Nc1ccc(Br)cc1)c1ccc(CSC2=NCCS2)cc1`, the z-score was 0.0719.
In turn, `CCOC(=O)c1sc(NC(=O)C2C3C=CC(C3)C2C(=O)O)nc1C` (stereo unspecified) gave a z-score of -0.419.
